# The campaign covered roughly 50,000 compounds. About 800 (1.6%) showed an effect of 50% or more. The list shows a part of the results.
# Target: Bcl-2-like protein 10 (Homo sapiens) (UniProt Q9HD36)
# Assay: TR3 peptide-Bcl-B binding displacers, biochemical primary FP assay, phenotype converters (AID 1240);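 note: 0% = Bcl-B with tracer peptide and DMSO and 100% = tracer peptide lacking Bcl-B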
# Conditions: GST-Bcl-B / FITC-TR3 peptide fluorescence polarization; stronger effect = higher value; compound at 3.75 mg/L
# Chain of UniProt Q9HD36 (Q9HD36 whole entry, looked up): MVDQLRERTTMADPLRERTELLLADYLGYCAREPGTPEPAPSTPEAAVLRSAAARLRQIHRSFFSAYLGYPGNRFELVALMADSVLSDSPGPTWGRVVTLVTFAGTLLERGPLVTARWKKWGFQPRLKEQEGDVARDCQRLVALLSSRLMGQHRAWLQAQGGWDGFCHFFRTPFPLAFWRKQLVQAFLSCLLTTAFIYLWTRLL
row,SMILES,displacement [%]
1,O=C(Nc1ccccc1O)c1cc(Cl)ccc1Cl,-5.3
2,Cc1cc(C)n(-c2cc(NCc3ccccc3)nc(-c3ccccc3)n2)n1,-0.3
3,CCOC(=O)C1=C(C)N=c2s/c(=C\c3ccc(-c4ccc([N+](=O)[O-])cc4)o3)c(=O)n2C1c1ccc2c(c1)OCO2 (stereo not given),-13.9
4,COc1ccc(Br)cc1/C=C/C(=O)Nc1ccc(-c2nc3ncccc3o2)cc1,-4.5
5,CCOC(=O)C1=C(C)N=c2s/c(=C\c3ccc4c(c3)OCO4)c(=O)n2C1/C=C/c1ccccc1 (stereo not given),0.9
6,CCOc1ccc(C2(Cc3ccccc3)C(=O)c3ccccc3C2=O)cc1,15.4
7,COc1ccc(C2C(C#N)=C(N)SC(N)=C2C#N)c(OC)c1,-34.6
8,O=C(N/N=C/c1ccc(Cl)cc1)c1ccc(O)cc1,-1.1
9,COc1ccc(C2CC(c3ccccc3)=Nc3ccccc3S2)cc1OC (stereo not given),-0.2
10,N#Cc1c(NC(=O)CCN2C(=O)c3ccccc3C2=O)sc2c1CCCC2,16.4
11,COc1ccc(-c2n[nH]c(=S)n2-c2ccc(C)cc2)cc1,2.2
12,Cc1c(NC(=O)CN(c2cccc(Cl)c2)S(=O)(=O)c2ccccc2)c(=O)n(-c2ccccc2)n1C,5.1
13,COc1ccc(Cl)cc1N(CC(=O)NCc1ccco1)S(=O)(=O)c1ccc(C)c([N+](=O)[O-])c1,-13.1
14,CC(C)(C)OC(=O)N1N=C(c2ccc(Br)cc2)CC1(O)C(F)(F)F (stereo not given),13.6
15,Cc1ccccc1-c1nc2ccccc2c(=O)n1/N=C/c1c[nH]c2ccccc12,9.6
16,O=C(Nc1ccccc1Cl)c1cccc(F)c1,-1.5
17,CCOc1ccc2nc(C)c(C/C=C(/C)Cl)c(Cl)c2c1,-4.2
18,COc1ccc(C2c3c(n(C)c(=O)n(C)c3=O)N=C3c4ccccc4C(=O)C32)cc1OC (stereo not given),6.4
19,COc1ccc(C2(CNC(=O)c3cc4ccccc4o3)CCCC2)cc1OC,-17.2
20,CCOc1ccccc1NC(=O)CN(c1ccc(Cl)cc1)S(C)(=O)=O,-4.1
21,O=C(/C=C/c1ccccc1OCc1ccccc1)c1ccc(Br)cc1,12.6
22,CCc1nnc(NC(=O)CC(c2ccccc2)c2ccccc2)s1,-0.3
23,O=C(Nc1ccc2oc(-c3ccc(F)cc3Cl)nc2c1)c1ccc(Br)o1,14
24,CCOC(=O)c1cn(CC)c2cc(N(C)CCc3ccc(OC)c(OC)c3)c(F)cc2c1=O,7.3
25,O=C(Nc1ccc(Cl)cc1)Nc1nnc(/C=C/c2ccccc2Cl)s1,1.3
26,O=Cc1ccc(OC(=O)c2ccc(I)cc2)cc1,2.3
27,Cc1ccc(C(O)(CNCc2ccccc2)c2ccc(Br)cc2)cc1 (stereo not given),11.1

row,SMILES,displacement [%]
1,Cc1cc(C)c(COCCOCc2c(C)cc(C)c(/C=N/O)c2C)c(C)c1/C=N/O,8.9
2,CCOC(=O)c1c(NC(=O)c2cccc(OC)c2)sc(C(=O)Nc2ccccc2F)c1C,1.6
3,CCOCCOCCC(C(=O)O)P(=O)(c1ccccc1)c1ccccc1 (stereo not given),8.9
4,CC(C)C(=O)Nc1ccc(O)c(-c2nc3cc(Cl)ccc3o2)c1,-13.3
5,CN(C)c1ccc2c(=O)[nH][nH]c(=O)c2c1,9.3
6,O=C(O)c1ccc(Oc2ccc(NC(=O)c3cccc(F)c3)cc2)cc1,14.9
7,O/N=C1/CCCc2c1[nH]c1ccccc21,13.1
8,Cc1cccc(N=C2NC(=O)/C(=C\c3ccc(Cl)cc3)S2)c1C,8.3
9,CC(=O)Nc1nc2c(s1)C(=O)NCC(C)(C)C2,7.7
10,NC1=C(Nc2ccccc2)C(=O)c2ccccc2C1=O,13.5
11,COc1ccc(N2C(=O)/C(=C\c3ccc(OC)cc3OC)N=C2c2ccccc2)cc1,192
12,COc1ccccc1C/C(N)=N/OC(=O)COc1cccc(C)c1,0.4
13,O=C(O)c1cc(NC(=O)c2ccccc2-c2ccccc2C(=O)O)cc(C(=O)O)c1,16.3
14,COC(=O)c1sccc1NC(=O)/C=C/c1ccc([N+](=O)[O-])cc1,5.4
15,CCCC1CCc2c(sc(NC(=O)/C=C\C(=O)O)c2C(N)=O)C1 (stereo not given),10.2
16,CCOc1cc(/C=C(\C#N)C(=O)c2ccccc2)ccc1O,-44.7
17,O=C(Nc1ccc(F)cc1)C1CC1(c1ccccc1)c1ccccc1 (stereo not given),0
18,Cc1ccc(S(=O)(=O)Nc2ccc(NC(=O)C3C4C=CC(O4)C3C(=O)O)cc2)cc1 (stereo not given),8.5
19,CC1=NNC(=O)C1CC(=O)N/N=C/c1ccc(O)cc1 (stereo not given),-5.3
20,Cc1cc(C)c2oc(-c3ccc(NC(=O)c4cc5ccccc5oc4=O)cc3)nc2c1,-3.8
21,Cc1cc2nc3n(c2cc1C)CCCN3,-8.7
22,COC(=O)c1cc(-c2ccc(N)cc2)nc2ccccc12,-11.6
23,CCCOC(=O)c1c(-c2ccc(-c3ccccc3)cc2)csc1N,-1.1
24,CCOC(=O)C1=C(C)N=c2s/c(=C\c3cn(C)c4ccccc34)c(=O)n2C1c1cccs1 (stereo not given),11.5
25,CCOC(=O)c1c(NC(=O)c2ccc(N3C(=O)CCC3=O)cc2)sc2c1CCCC2,2.5
26,O=C(Nc1ccc(Cl)c(Cl)c1)NN1CCOCC1,2.4
27,COC(=O)c1ccccc1NC(=O)c1ccc[n+]([O-])c1,-4.8

row,SMILES,displacement [%]
1,CCCC(=O)Oc1ccc2c(=O)c(-c3ccccc3OC)coc2c1,9.6
2,O=S(=O)(c1cccc2cccnc12)N1CCN(Cc2ccc3c(c2)OCO3)CC1,10
3,O=C(Cc1cccc2ccccc12)N/N=C/c1ccc(-c2cccc(Cl)c2)o1,-0.4
4,COc1ccc(/C=N\Nc2nc(NCc3ccco3)nc(Nc3ccc(OC)cc3)n2)cc1,-7.7
5,C[N+]1=C2C=CC=CC=C2SC12C([N+](=O)[O-])=CC(=[N+]([O-])[O-])c1cccnc12 (stereo not given),-3.8
6,COc1cc(NC(=O)COc2ccc(Br)cc2C(C)(C)C)c(OC)cc1Cl,2
7,CC(C)CCn1c2ccccc2c2cc(CC(=O)O)ccc21,5.7
8,Cc1ccc(N(CC(=O)N2CCCCC2)S(=O)(=O)c2ccc(F)cc2)cc1,0.1
9,C/C(=N\NC(=O)c1cc(C)[nH]n1)c1ccc(C)cc1,-16.3
10,CN=C(Nc1ccccc1)SC1CC(=O)N(c2cccc(OC)c2)C1=O (stereo not given),-7.9
11,O=C1CC2c3ccccc3C1C1C(=O)N(c3cccc(Br)c3)C(=O)C21 (stereo not given),-14.1
12,COc1ccc(-c2cc(C(F)(F)F)n3nc(C(=O)N4CCN(C)CC4)c(Cl)c3n2)cc1,-11.6
13,COc1ccc(N2C(=O)C3C(c4ccccc4C)OC4(C(=O)c5ccccc5C4=O)C3C2=O)cc1 (stereo not given),-4.1
14,CC(C)(C)c1ccc(OCC(=O)N2CCC(Cc3ccccc3)CC2)cc1,5.3
15,C=CCN1C(=O)/C(=C\c2ccc(-c3ccc(C(=O)OCC)cc3)o2)C(=O)NC1=S,-7.9
16,O=C1/C(=C\c2cccc(Br)c2)SC(=S)N1CC(=O)N1c2ccccc2Sc2ccccc21,10.9
17,Cc1ccc(-c2ncnn2-c2cccc(Cl)c2C)cc1,-3.8
18,Cc1cccc(N2C(=O)C(O)=C(C(=O)/C=C/c3ccccc3)C2c2ccc(N(C)C)cc2)c1 (stereo not given),-2.2
19,COc1cccc(NC(=O)CN(c2ccc(C)cc2)S(=O)(=O)c2ccc(SC)cc2)c1,7.8
20,O=C(c1cccs1)N1CCN(Cc2cccc(Br)c2)CC1,9.5
21,O=C(Nc1cc(C(F)(F)F)cc(C(F)(F)F)c1)c1ccc([N+](=O)[O-])cc1Cl,-9.1
22,O=C(O)c1ccc(NS(=O)(=O)c2cc(C(=O)O)ccc2Br)cc1,1
23,COc1cc(C=C2C(=O)NC(=O)NC2=O)ccc1OCCO,-2.4
24,COc1cc(-c2nc3sc4c(c3c(=O)[nH]2)CCCC4)cc([N+](=O)[O-])c1O,9.1
25,O=C(c1ccccc1Cl)N1CCN(CCN2C(=O)c3cccc4cccc(c34)C2=O)CC1,-12
26,Cc1ccc(C)c(NCC(=O)Nc2c(C)cccc2C)c1,2.7
27,CCOc1ccc(C2/C(=C(\O)c3ccccc3)C(=O)C(=O)N2CCCCCC(=O)O)cc1 (stereo not given),-7.7

row,SMILES,displacement [%]
1,O=C(Cc1ccccc1)Nc1ccc(NC(=O)c2ccccc2)c(Br)c1,8
2,CCCCn1c(/N=C/c2cc(Cl)ccc2O)nc2ccccc21,9.1
3,O=C(Nc1ccc2nn(-c3ccc(Br)cc3)nc2c1)c1cccnc1,-5.8
4,CCOc1ccc(-n2c(O)c(/C=C3\C=Nc4ccccc43)sc2=O)cc1,3.9
5,Cc1cc(Cl)ccc1OCC(=O)Nc1c(C)ccc2nsnc12,16.5
6,O=c1[nH]c(NNC(=S)Nc2ccccc2)nc2sc3c(c12)CCCC3,-2.4
7,CCOC(=O)/C=C/C(=O)Nc1sc(C)c(C)c1C(N)=O,-2
8,O=C(NCCCN1CCOCC1)c1cccc(F)c1,-4.2
9,CC(C)c1ccc(C=Nc2ccc(Nc3ccccc3)cc2)cc1,28.2
10,Cc1ccccc1-c1nc2ccccc2c(=O)n1/N=C/c1ccc([N+](=O)[O-])cc1,12.8
11,COc1ccc(CCNC(=S)NC(=O)/C=C/c2ccc(C)cc2)cc1OC,-6.7
12,Cc1ccccc1C(=O)N1CCN(c2ccccn2)CC1,9.5
13,Cc1ccc(Nc2cc(C)c3ccccc3n2)cc1,9.6
14,CC1=C(C(=O)OC2CCCCC2)C(c2ccncc2)C2=C(CC(c3ccccc3)CC2=O)N1 (stereo not given),-7.6
15,COc1cccc(NC(=O)C2(C)CC3c4ccccc4C2c2ccccc23)c1 (stereo not given),-5.2
16,Cc1ccc(C)c(NC(=O)CN(c2ccc(C(C)C)cc2)S(=O)(=O)c2ccccc2)c1,1.7
17,S=C1NCN(Cc2ccccc2)CN1c1ccccc1,-7.2
18,Cc1cccc(NC(=O)c2ccc(S(=O)(=O)N(C)C)cc2)n1,3.3
19,CC1=C(C(=O)OC2CCCC2)C(c2cccc(Br)c2)C2=C(CCCC2=O)N1 (stereo not given),3.3
20,CCc1c(O)nc(SCCN(CC)CC)n(-c2ccccc2)c1=O,1.4
21,Cc1c(C#N)c2ncnc(-c3ccccc3)c2n1-c1ccccc1,1.2
22,COc1ccc(/C(O)=C/c2nc3ccccc3[nH]c2=O)cc1,6.8
23,COc1cccc(C2C(C(=O)Nc3ccccc3)=C(C)N=c3s/c(=C\c4ccc(N(C)C)cc4)c(=O)n32)c1 (stereo not given),73.6
24,CCOc1ccccc1N1CCN(C(=O)c2ccco2)CC1,-2.2

# Source: PubChem BioAssay AID1240 (Sanford-Burnham Center for Chemical Genomics, 2008)
